Data on 219 sequences can be found in paper PMC10668032.

The list shows a part of the results. At the low end of the ranking the order means little.

This assay has as its target SIX1-Q177R homeodomain (UniProt Q15475). The experiment in a line: universal protein binding microarray. The settings on record: Universal all-10-mer PBM (8x60K, AMADID 030236), 300 nM GST-tagged protein, Alexa Fluor 488 anti-GST; buffer, salt, pH and temperature not stated; high values mean tight binding; most listed sequences are background and not binding sites; double strand, one strand shown.
On to CTTCGCCC, for which the binding signal is -0.109 E-score.
GAGGGGCC: the binding signal was -0.0293 E-score.
For AAAGCGTC, the binding signal is -0.0369 E-score.
AGGCCAGG: the binding signal was -0.157 E-score.
With CATCTGGG, the binding signal was 0.0556 E-score.
Turning to AATATGCC, the binding signal came to 0.0204 E-score.
For CGATCAAG, the binding signal is 0.00342 E-score.
As to GCAGATGC, the binding signal was -0.119 E-score.
Then GCCCAGTA, with 0.0291 E-score; and CCGCCGGA, with 0.00758 E-score.
As for GGAGTGCA, the binding signal was determined as 0.17 E-score.
Then CCTCGAGG, with 0.0223 E-score; and AGAGCTGG, with 0.0405 E-score; and ATAATGAG, with -0.152 E-score.
With CGAAACGA, the binding signal was -0.195 E-score.
Take TGTAAACA: the binding signal amounted to 0.262 E-score.
GCATGGAC: the binding signal is -0.0266 E-score.
Then AAATCTAC, with 0.0113 E-score; and CCTGACGC, with 0.161 E-score; and GTGTGACA, with 0.436 E-score.
AATTTGTG: the binding signal came to 0.000525 E-score.
For CAAGGGTA, the binding signal is 0.19 E-score.
As for GTGTGATA, the figure is 0.345 E-score.
With TACAAACA, the binding signal was 0.111 E-score.
For the sequence CCAGGTCG, the binding signal is 0.0732 E-score.
Consider AGACTCTA, for which the binding signal is -0.324 E-score.
On to CAGCAAGA, for which the binding signal was -0.163 E-score.
In the case of ATGTGTTA, the binding signal was 0.109 E-score.
As for CCTTAGAG, the figure is -0.047 E-score; as for ATCTGTCG, -0.0424 E-score; as for TTATTGAA, -0.175 E-score.
Turning to CGGTAGCC, the binding signal was -0.00436 E-score.
For CGTAGTTA, the binding signal was -0.0498 E-score.
With TCCCGGAA, the binding signal is -0.0101 E-score.
With AAGCATAA, the binding signal was -0.126 E-score.
Consider GCTTGACC, for which the binding signal was -0.0802 E-score.
AACTGGGG: the binding signal came out at 0.0466 E-score.
Regarding CCAATGCC, the binding signal is -0.262 E-score.
Turning to GCAGCAGA, the binding signal is -0.153 E-score.
For the sequence AAAAGGTG, the binding signal was 0.195 E-score.
With ATACGCAT, the binding signal was -0.0256 E-score.
As for AGCGAAAG, the binding signal was -0.255 E-score.
Take ACTTGACG: the binding signal stood at 0.017 E-score.
For the sequence CGGGCTCC, the binding signal was -0.093 E-score.
As for CCTTGCCG, the figure is -0.212 E-score; as for GCGTGTCC, 0.412 E-score; as for GGGAATAC, 0.0973 E-score.
As to GCATCGGA, the binding signal is -0.234 E-score.
Turning to CAAAGTGC, the binding signal was -0.135 E-score.
Take ACCATGTG: the binding signal worked out at 0.125 E-score.
Consider AGCTCTTA, for which the binding signal is -0.00688 E-score.
Turning to GGTATCAA, the binding signal stood at 0.325 E-score.
For AGAAGATC, the binding signal is -0.244 E-score.
On to ATAACCAG, for which the binding signal was 0.00928 E-score.
Then ACTGAGGC, with -0.241 E-score; and CCAATTGC, with -0.257 E-score; and CTAGCAAG, with -0.0881 E-score.
On to AGAGACTG, for which the binding signal is -0.137 E-score.
On to ACCCGGAA, for which the binding signal was 0.272 E-score.
Regarding TGATGCCA, the binding signal worked out at 0.0543 E-score.
In the case of ACTGTAAT, the binding signal was determined as 0.0173 E-score.
Then GGAATCAC, with -0.00797 E-score; and GCGGAGTA, with 0.241 E-score.
Take CCGTTGGC: the binding signal amounted to 0.0314 E-score.
For ATTGAATG, the binding signal amounted to 0.0654 E-score.
Consider TCCGACGA, for which the binding signal is -0.134 E-score.
As for CGGGATAC, the binding signal worked out at 0.281 E-score.
For the sequence CTGGCGCC, the binding signal was -0.25 E-score.
On to AAATCCCC, for which the binding signal came out at 0.122 E-score.
As for GAGTTGTA, the figure is -0.0303 E-score; as for GATACCAC, 0.325 E-score; as for TAGAGGGA, -0.0889 E-score.
For AGAGAATC, the binding signal was -0.167 E-score.
Then TTGATAAA, with -0.154 E-score; and ACATGAAC, with -0.0781 E-score.
As for AGCCCAAG, the figure is -0.342 E-score; as for GAAAGGGC, -0.32 E-score; as for ACTCGAAG, -0.0475 E-score.
Consider GCCATAGC, for which the binding signal was determined as 0.0455 E-score.
As for CTTGTGTA, the figure is 0.154 E-score; as for AAACAGTA, -0.115 E-score; as for AGTATTGA, -0.0693 E-score.
As for AATTAGAA, the binding signal was -0.284 E-score.
For AACGACTT, the binding signal is -0.262 E-score.
Turning to AGGCAGGG, the binding signal is -0.0227 E-score.
On to AGGGTGTC, for which the binding signal is 0.488 E-score.
For the sequence CCTTAATA, the binding signal turned out to be 0.0625 E-score.
With ACTTACAA, the binding signal is -0.0698 E-score.
AACCTACG: the binding signal is -0.271 E-score.
For the sequence GTTAAGCA, the binding signal was determined as 0.0527 E-score.
Turning to ACCGTGAC, the binding signal turned out to be 0.0905 E-score.
With AACGGCCA, the binding signal is -0.238 E-score.
Take CGTAGTGA: the binding signal was found to be 0.0773 E-score.
In the case of ATACTTAC, the binding signal came out at 0.097 E-score.
Take TCAAGTCA: the binding signal is -0.25 E-score.
AATGCGAC: the binding signal is -0.00036 E-score.
Regarding CTCGGACA, the binding signal is 0.171 E-score.
As for ATGATGCA, the binding signal is -0.183 E-score.
For CATACATA, the binding signal is -0.247 E-score.
As for ACTGATCC, the figure is 0.16 E-score; as for ATTGTCAC, 0.0274 E-score; as for CTTGGTGA, 0.0611 E-score.
In the case of AAATTCAG, the binding signal is -0.179 E-score.
For CGTCTGAA, the binding signal is -0.133 E-score.
As for GGACGCAA, the figure is -0.104 E-score; as for AAGTGCTC, 0.0929 E-score; as for GCTTGGAA, -0.196 E-score.
As to AATTGGAA, the binding signal was -0.0206 E-score.
Then CAATCGCC, with -0.0462 E-score; and GCTACCGA, with -0.22 E-score.
Regarding CTCGCGGC, the binding signal worked out at 0.00649 E-score.
Take AATCGCGT: the binding signal was determined as 0.0255 E-score.
Turning to CGCGACTA, the binding signal is 0.0701 E-score.
Turning to GGCGGCGA, the binding signal was -0.00477 E-score.
On to TGGCCTAA, for which the binding signal is -0.256 E-score.
Turning to ACATGATC, the binding signal was found to be 0.0566 E-score.
Then ATACCTCC, with 0.231 E-score; and GACGCTGA, with -0.0673 E-score.
Then CTCAAAAG, with 0.0248 E-score; and AAGATCAA, with -0.129 E-score; and ATCCTCAA, with -0.155 E-score.
For TAAGGTCA, the binding signal was -0.162 E-score.
With AGTTGCTG, the binding signal was -0.222 E-score.
Then CTGCGATA, with 0.0553 E-score; and ACGGCTTG, with -0.138 E-score; and GCTCGGTA, with -0.118 E-score.
Consider AATCTGGT, for which the binding signal worked out at 0.159 E-score.
Consider ATCTGCAT, for which the binding signal was -0.124 E-score.
Then AGGATGCC, with -0.0952 E-score; and CCCTTCGA, with -0.0186 E-score; and ACGCCTAG, with 0.0683 E-score.
With CATGGCCA, the binding signal is -0.175 E-score.
As for CTTGAGTC, the figure is -0.211 E-score; as for CATTGCAA, -0.135 E-score.
In the case of CAGCCTAG, the binding signal is -0.0898 E-score.
Take ATGGTATA: the binding signal was 0.0711 E-score.
Then ACCTATAA, with 0.177 E-score; and CTGGAAAC, with 0.178 E-score; and CCTGGGGA, with -0.119 E-score.
For CAGATTAG, the binding signal is -0.0223 E-score.
Then CGGACCTC, with -0.0342 E-score.
For the sequence CGGTTACC, the binding signal is 0.0351 E-score.
Turning to AAAATATA, the binding signal was -0.00472 E-score.
For the sequence CACAAGGC, the binding signal is -0.0207 E-score.
GTTCCTCA: the binding signal is -0.0768 E-score.
For CGAATTAC, the binding signal is 0.00159 E-score.
As for GCTTACTA, the figure is -0.201 E-score.
Then CTTGTCGC, with -0.236 E-score.
As for GTCATTGA, the figure is 0.0213 E-score; as for ACCAAAGA, -0.0672 E-score; as for CACTTATG, 0.161 E-score.
Consider CAGGATCG, for which the binding signal is -0.012 E-score.
Turning to AAATGGAG, the binding signal worked out at 0.0508 E-score.
As for CCCATCCA, the binding signal amounted to 0.0199 E-score.
As to ATCCTAAG, the binding signal was -0.268 E-score.
Turning to AAAGACAG, the binding signal came out at 0.0883 E-score.
Then ATGGTCGA, with -0.0208 E-score; and AGACGTTC, with -0.329 E-score.
On to GGCCATGA, for which the binding signal is 0.0132 E-score.
As for AGCTCCTC, the binding signal is -0.108 E-score.
For the sequence CCTTCTTC, the binding signal is -0.1 E-score.
For AAGTCTAG, the binding signal was -0.241 E-score.
For AAGTAGTC, the binding signal is -0.103 E-score.
AAATCACC: the binding signal was -0.103 E-score.
As for CTTCCCGA, the binding signal stood at 0.0921 E-score.
Take GTTCTGCA: the binding signal amounted to 0.0204 E-score.
Consider CCGATACG, for which the binding signal stood at 0.0455 E-score.
Take AGAAAGTC: the binding signal was -0.265 E-score.
Consider CCGAATTC, for which the binding signal was -0.101 E-score.
As for CCGTGCAG, the figure is 0.111 E-score.
Then ACAAACGG, with -0.09 E-score; and TCCGAAAA, with -0.049 E-score; and ATAGTGGA, with 0.05 E-score.
In the case of ACGGTAAG, the binding signal stood at 0.0149 E-score.
As for ATCGGAAG, the figure is -0.112 E-score.
As for TATGATGA, the binding signal was -0.136 E-score.
Then GTTTTAGA, with -0.187 E-score; and CTTCTTCC, with -0.171 E-score.
Consider CACCGAGG, for which the binding signal amounted to 0.247 E-score.
CACGCGTC: the binding signal stood at 0.262 E-score.
As for ACAAAGCA, the figure is -0.125 E-score; as for CCTGATAA, -0.156 E-score.
Turning to CCTATTCC, the binding signal is -0.245 E-score.
In the case of CAGATCAC, the binding signal was -0.00859 E-score.
On to CCACGCCC, for which the binding signal was found to be 0.106 E-score.
Regarding CCCCTTTA, the binding signal worked out at 0.0582 E-score.
Regarding AAGTCTAA, the binding signal is -0.0559 E-score.
As for ATCTGGAA, the figure is -0.0977 E-score.
With AAGTGGGT, the binding signal turned out to be 0.0961 E-score.
ATGGATGC: the binding signal is -0.156 E-score.
With GGCAGCCC, the binding signal was -0.0126 E-score.
Turning to CTCTAGAC, the binding signal is 0.0385 E-score.
Turning to AGAGTCCT, the binding signal was -0.0889 E-score.
As to GATCATCC, the binding signal was found to be 0.121 E-score.
As for GGCCCCAC, the figure is -0.181 E-score; as for AGGAAACT, -0.271 E-score.
As for TATGGTCA, the figure is -0.119 E-score; as for GCTAGTAC, -0.00805 E-score.
On to TAGTGTAA, for which the binding signal was determined as 0.408 E-score.
With CCATACTC, the binding signal amounted to 0.0477 E-score.
Regarding GGTTGACA, the binding signal stood at 0.137 E-score.
With ACGATGCT, the binding signal amounted to 0.0406 E-score.
As for CCATGGCA, the figure is 0.00479 E-score; as for CTATTCTC, -0.0853 E-score; as for CAGGAGGG, -0.0044 E-score.
In the case of GAGCTACA, the binding signal worked out at 0.0255 E-score.
As to GTTTGCGA, the binding signal turned out to be 0.066 E-score.
Turning to AGCTTTCG, the binding signal is -0.271 E-score.
As to TAGGAGAA, the binding signal is -0.0203 E-score.
With CCTAGCCC, the binding signal came to 0.0152 E-score.
As to CGAATTCA, the binding signal is -0.157 E-score.
In the case of CCTGGAGC, the binding signal was -0.0512 E-score.
As for AGCCACCA, the figure is -0.154 E-score; as for ATCACTTG, 0.0272 E-score; as for CCCACCTA, 0.128 E-score.
Take TGTAGTAA: the binding signal is 0.101 E-score.
Consider ACTTCTTA, for which the binding signal stood at 0.183 E-score.
Regarding CAATAGAG, the binding signal was -0.153 E-score.
With AGGGTTTA, the binding signal was found to be 0.117 E-score.
